T1: Human-NKP30-His (human, UniProt O14931 19-135)
T1 construct: also called NKP30 protein; not shown: His tag
T1 sequence (looked up): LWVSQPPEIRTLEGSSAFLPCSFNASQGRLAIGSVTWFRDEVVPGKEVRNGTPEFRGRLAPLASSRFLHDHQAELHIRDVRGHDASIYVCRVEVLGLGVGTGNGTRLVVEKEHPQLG

B1: CNT-A (other)
light: EVQLVESGGGLVQPGGSLRLSCAASGITFSRSVMGWFRQAPGKLRELVAGITSDDNTDYADSVKGRFTISRDNSKNTLYLQMNSLRAEDTAVYYCNILPDSRLGWGQGTLVTVSSGGGGSGGGGSGGGGSDIVMTQSPSSLTATARERVTMSCKSSQSLLNSGNQKNYLTWYQQKPGQPPKLLIYWASTRESGVPDRFTGSGSGTDFTLTVSSVQAEDLAVYYCQNAYFYPFTFGSGTKLEIKRTVAAPSVFIFPPSDEQLKSGTASVVCLLNNFYPREAKVQWKVDNALQSGNSQESVTEQDSKDSTYSLSSTLTLSKADYEKHKVYACEVTHQGLSSPVTKSFNRGEC
heavy: EVQLVESGGGLVKPGGSLKLSCTASGFTFSSYVMSWVRQTPEKRLEWVATINDGGSYTYYPDNLKGRFTISRDNAKNNLYLQMSHLRSEDTARYYCSVLRRGNAMDYWGQGTSVTVSS[human IgG1 constant region not spelt out]GGSGGGGSGGGGSGGGGSGIPPHVQKSVNNDMIVTDNNGAVKFPQLCKFCDVRFSTCDNQKSCMSNCSITSICEKPQEVCVAVWRKNDENITLETVCHDPKLPYHDFILEDAASPKCIMKEKKKPGETFFMCSCSSDECNDNIIFSEEYNTSNPD
notes: also called constructed antibody CNT-A; trifunctional antibody
B2: CNT-B (other)
light: DIVMTQSPSSLTATARERVTMSCKSSQSLLNSGNQKNYLTWYQQKPGQPPKLLIYWASTRESGVPDRFTGSGSGTDFTLTVSSVQAEDLAVYYCQNAYFYPFTFGSGTKLEIKRTVAAPSVFIFPPSDEQLKSGTASVVCLLNNFYPREAKVQWKVDNALQSGNSQESVTEQDSKDSTYSLSSTLTLSKADYEKHKVYACEVTHQGLSSPVTKSFNRGEC
heavy: EVQLVESGGGLVQPGGSLRLSCAASGITFSRSVMGWFRQAPGKLRELVAGITSDDNTDYADSVKGRFTISRDNSKNTLYLQMNSLRAEDTAVYYCNILPDSRLGWGQGTLVTVSSGGGGSGGGGSGGGGSEVQLVESGGGLVKPGGSLKLSCTASGFTFSSYVMSWVRQTPEKRLEWVATINDGGSYTYYPDNLKGRFTISRDNAKNNLYLQMSHLRSEDTARYYCSVLRRGNAMDYWGQGTSVTVSS[human IgG1 constant region not spelt out]GGSGGGGSGGGGSGGGGSGIPPHVQKSVNNDMIVTDNNGAVKFPQLCKFCDVRFSTCDNQKSCMSNCSITSICEKPQEVCVAVWRKNDENITLETVCHDPKLPYHDFILEDAASPKCIMKEKKKPGETFFMCSCSSDECNDNIIFSEEYNTSNPD
notes: also called constructed antibody CNT-B; trifunctional antibody
B3: CNT-C (other)
light: DIVMTQSPSSLTATARERVTMSCKSSQSLLNSGNQKNYLTWYQQKPGQPPKLLIYWASTRESGVPDRFTGSGSGTDFTLTVSSVQAEDLAVYYCQNAYFYPFTFGSGTKLEIKRTVAAPSVFIFPPSDEQLKSGTASVVCLLNNFYPREAKVQWKVDNALQSGNSQESVTEQDSKDSTYSLSSTLTLSKADYEKHKVYACEVTHQGLSSPVTKSFNRGECGGGGSGGGGSGGGGSGGGGSEVQLVESGGGLVQPGGSLRLSCAASGITFSRSVMGWFRQAPGKLRELVAGITSDDNTDYADSVKGRFTISRDNSKNTLYLQMNSLRAEDTAVYYCNILPDSRLGWGQGTLVTVSS
heavy: B1 heavy
notes: also called constructed antibody CNT-C; trifunctional antibody
B4: CNT-D (other)
light 1: EVQLVESGGGLVQPGGSLRLSCAASGITFSRSVMGWFRQAPGKLRELVAGITSDDNTDYADSVKGRFTISRDNSKNTLYLQMNSLRAEDTAVYYCNILPDSRLGWGQGTLVTVSSGGGGSGGGGSGGGGSEVQLVESGGGLVKPGGSLKLSCTASGFTFSSYVMSWVRQTPEKRLEWVATINDGGSYTYYPDNLKGRFTISRDNAKNNLYLQMSHLRSEDTARYYCSVLRRGNAMDYWGQGTSVTVSSRTVAAPSVFIFPPSDEQLKSGTASVVCLLNNFYPREAKVQWKVDNALQSGNSQESVTEQDSKDSTYSLSSTLTLSKADYEKHKVYACEVTHQGLSSPVTKSFNRGEC
heavy 1: DIVMTQSPSSLTATARERVTMSCKSSQSLLNSGNQKNYLTWYQQKPGQPPKLLIYWASTRESGVPDRFTGSGSGTDFTLTVSSVQAEDLAVYYCQNAYFYPFTFGSGTKLEIK[human IgG1 constant region with changes not spelt out]GGSGGGGSGGGGSGGGGSGIPPHVQKSVNNDMIVTDNNGAVKFPQLCKFCDVRFSTCDNQKSCMSNCSITSICEKPQEVCVAVWRKNDENITLETVCHDPKLPYHDFILEDAASPKCIMKEKKKPGETFFMCSCSSDECNDNIIFSEEYNTSNPD
heavy 2: EVQLVESGGGLVKPGGSLKLSCTASGFTFSSYVMSWVRQTPEKRLEWVATINDGGSYTYYPDNLKGRFTISRDNAKNNLYLQMSHLRSEDTARYYCSVLRRGNAMDYWGQGTSVTVSS[human IgG1 constant region with changes not spelt out]GGSGGGGSGGGGSGGGGSGIPPHVQKSVNNDMIVTDNNGAVKFPQLCKFCDVRFSTCDNQKSCMSNCSITSICEKPQEVCVAVWRKNDENITLETVCHDPKLPYHDFILEDAASPKCIMKEKKKPGETFFMCSCSSDECNDNIIFSEEYNTSNPD
light 2: B2 light
notes: also called constructed antibody CNT-D; trifunctional antibody
B5: CNT-E (other)
light: B2 light
heavy 1: EVQLVESGGGLVQPGGSLRLSCAASGITFSRSVMGWFRQAPGKLRELVAGITSDDNTDYADSVKGRFTISRDNSKNTLYLQMNSLRAEDTAVYYCNILPDSRLGWGQGTLVTVSSGGGGSGGGGSGGGGSEVQLVESGGGLVKPGGSLKLSCTASGFTFSSYVMSWVRQTPEKRLEWVATINDGGSYTYYPDNLKGRFTISRDNAKNNLYLQMSHLRSEDTARYYCSVLRRGNAMDYWGQGTSVTVSS[human IgG1 constant region with changes not spelt out]GGSGGGGSGGGGSGGGGSGIPPHVQKSVNNDMIVTDNNGAVKFPQLCKFCDVRFSTCDNQKSCMSNCSITSICEKPQEVCVAVWRKNDENITLETVCHDPKLPYHDFILEDAASPKCIMKEKKKPGETFFMCSCSSDECNDNIIFSEEYNTSNPD
heavy 2: EVQLVESGGGLVKPGGSLKLSCTASGFTFSSYVMSWVRQTPEKRLEWVATINDGGSYTYYPDNLKGRFTISRDNAKNNLYLQMSHLRSEDTARYYCSVLRRGNAMDYWGQGTSVTVSS[human IgG1 constant region with changes not spelt out]GGSGGGGSGGGGSGGGGSGIPPHVQKSVNNDMIVTDNNGAVKFPQLCKFCDVRFSTCDNQKSCMSNCSITSICEKPQEVCVAVWRKNDENITLETVCHDPKLPYHDFILEDAASPKCIMKEKKKPGETFFMCSCSSDECNDNIIFSEEYNTSNPD
notes: also called constructed antibody CNT-E; trifunctional antibody

Each binder was assayed against T2, TGFβ1 (UniProt P01137 fragment, limits assumed) (assay: ELISA, TGFb1 coated at 1 ug/mL, HRP goat anti-human IgG-Fc).
T2 construct: also called TGFβ1 protein
Description: TGFβ1 was diluted to 1 μg/mL with PBS buffer at pH 7.4, added into the 96-well ELISA plate at 100 μL per well, coated overnight at 4° C., and blocked with 1% BSA blocking solution for 1 hour. The plate was washed 3 times with PBST, and the constructed expressing antibodies were diluted to 20 µg/mL with 0.5% BSA sample diluent as the starting concentration, and then diluted by 3-fold gradient (11 gradients in total). A negative control (blank well and IgG1 isotype control) and a positive control were set, and the positive control was TGF-βR2 (Acro, Cat: TG2-H5252), and incubated at 37° C. for 1 h at 100 μL per well. The plate was washed 3 times with PBST, and then HRP-labelled goat anti-human IgG-Fc was diluted with the sample diluent at 1:10000. 100 μL was added into each well, and incubated at room temperature for 1 hour. The plate was washed 4 times with PBST, and 100 μL of TMB substrate was added into each well, and incubated at room temperature without light for 10 minutes. 100 μL of 1 M HCl solution was added into each well to terminate the color development reaction. The absorbance value of each well in the 96-well plate was determined by selecting the wavelength of 450 nm and the reference wavelength of 570 nm on a multifunctional enzyme marker, and the absorbance value (OD)=OD₄₅₀ₙₘ−OD₅₇₀ₙₘ. The logarithm of the concentration of the constructed antibodies were taken as the abscissa, and the measured absorbance value of each well was taken as the ordinate, and the Sigmoidaldose-response (Variable Slope) method (GraphPad Prism software, GraphPad Software, San Diego, California) was selected for nonlinear regression to obtain the binding curve of the target antibodies to the TGFβ1 protein.

Sequence of TGFβ1 (P01137 279-390 limits assumed): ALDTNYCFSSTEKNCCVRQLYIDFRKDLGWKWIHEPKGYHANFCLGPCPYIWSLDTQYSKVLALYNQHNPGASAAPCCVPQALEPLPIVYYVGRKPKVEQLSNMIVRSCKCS

Binder | EC50 (read off the curve) [µg/mL]
B1 | ~0.03
B2 | ~0.3
B3 | ~0.5
B4 | ~0.05
B5 | ~0.1

These binders were tested against T1, Human-NKP30-His (assay: ELISA, Human-NKP30-His coated at 0.5 ug/mL, HRP goat anti-human IgG-Fc).
Description: Human-NKP30-His was diluted to 0.5 μg/mL with PBS buffer at pH 7.4, added into the 96-well ELISA plate at 100 μL per well, coated overnight at 4° C., and blocked with 1% BSA blocking solution for 1 hour. The plate was washed 3 times with PBST, and the constructed antibodies were diluted to 10 μg/mL with 0.5% BSA sample diluent as the starting concentration, and then diluted by 3-fold gradient (11 gradients in total). A negative control (blank well and IgG1 isotype control) and a positive control were set, and the positive control was a NKP30 humanized antibody (sequence shown in SEQ ID No.32), and incubated at 37° C. for 1 h at 100 μL per well. The plate was washed 3 times with PBST, and then HRP-labelled goat anti-human IgG-Fc was diluted with the sample diluent at 1:20000. 100 μL was added into each well, and incubated at room temperature for 1 hour. The plate was washed 4 times with PBST, and 100 μL of TMB substrate was added into each well, and incubated at room temperature without light for 10 minutes. 100 μL of 1 M HCl solution was added into each well to terminate the color development reaction. The absorbance value of each well in the 96-well plate was determined by selecting the wavelength of 450 nm and the reference wavelength of 570 nm on a multifunctional enzyme marker, and the absorbance value (OD)=OD₄₅₀ₙₘ−OD₅₇₀ₙₘ. The logarithm of the concentration of the constructed antibodies were taken as the abscissa, and the measured absorbance value of each well was taken as the ordinate, and the Sigmoidaldose-response (Variable Slope) method (GraphPad Prism software, GraphPad Software, San Diego, California) was selected for nonlinear regression to obtain the binding curve of the target antibody to NKP30 protein.

Binder | EC50 (read off the curve) [µg/mL] | binding result
B1 | ~0.02 | –
B2 | ~0.1 | –
B3 | – | binds
B4 | ~0.06 | –
B5 | ~0.05 | –

— US20240336682A1 (SHENGHE CHINA BIOPHARMACEUTICAL, published 2024)
